# According to PubChem BioAssay (NCATS):
# The shares of active, inactive and inconclusive entries below differ from those in the screen. Potencies of inconclusive entries are left out as doubtful fits. The source made the active and inactive calls. The call rests on the fitted dose curve; in most records, active means well fitted inhibition curve with a large enough effect; inconclusive means small, poorly fitted or top-dose-only effect; inactive means flat fitted curve, though single readings scatter.
# Target: Ubiquitin carboxyl-terminal hydrolase 1 (Homo sapiens) (UniProt O94782)
# Chain of UniProt O94782 (O94782 whole entry, looked up): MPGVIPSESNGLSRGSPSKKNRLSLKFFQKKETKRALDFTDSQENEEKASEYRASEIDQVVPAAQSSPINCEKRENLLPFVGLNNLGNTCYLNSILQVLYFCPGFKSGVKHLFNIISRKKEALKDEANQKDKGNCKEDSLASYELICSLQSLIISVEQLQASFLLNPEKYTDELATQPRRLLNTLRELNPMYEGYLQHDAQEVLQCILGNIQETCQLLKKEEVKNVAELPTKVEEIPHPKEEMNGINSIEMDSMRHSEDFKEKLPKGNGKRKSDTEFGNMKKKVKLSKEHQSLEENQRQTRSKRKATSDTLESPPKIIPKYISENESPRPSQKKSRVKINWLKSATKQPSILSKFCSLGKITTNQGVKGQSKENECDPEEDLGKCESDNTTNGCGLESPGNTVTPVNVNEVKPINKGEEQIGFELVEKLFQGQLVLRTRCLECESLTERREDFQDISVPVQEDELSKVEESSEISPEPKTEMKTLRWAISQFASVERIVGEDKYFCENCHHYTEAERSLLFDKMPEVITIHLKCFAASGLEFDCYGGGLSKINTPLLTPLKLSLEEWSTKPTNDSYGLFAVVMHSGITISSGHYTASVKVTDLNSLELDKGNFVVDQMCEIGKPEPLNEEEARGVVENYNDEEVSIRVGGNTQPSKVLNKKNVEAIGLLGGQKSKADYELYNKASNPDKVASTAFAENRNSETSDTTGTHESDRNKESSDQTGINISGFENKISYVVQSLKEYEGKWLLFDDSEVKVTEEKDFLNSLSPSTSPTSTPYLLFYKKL
# Experiment: Inhibitors of USP1/UAF1: Pilot qHTS (AID 504865);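 further: rhodamine fluorescence freed from ubiquitin-rhodamine substrate followed over time; nearly all actives have a fitted effect of over 35% in size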; on activity change, negative = inhibition: top concentration of the series differs between compounds
# Conditions: purified USP1/UAF1, Ub-rhodamine cleavage fluorescence; series mostly up to 114 µM; activity change, negative = inhibition: at the top concentration
# Procedure, shortened: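 Kinetic fluorescence assay: 1nM USP1/UAF1, 15 min compound preincubation, then 150nM Ub-Rho; 480/540 nm.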
# On the % scale 0 is the no-effect control and ±100 the full control effect; potency means the concentration at half of the fitted maximal effect; tags describe the fitted curve by direction and shape.
SMILES,Potency,"activity change, negative = inhibition"
C=CCCCCCCCCCCC/C=C/C(O)COC(C)=O (centres undefined),"inconclusive [inhibitor, full curve, poor fit]",
C[N+](C)(C)CCOP(=O)([O-])OP(=O)(O)OCC1OC(n2ccc(N)nc2=O)C(O)C1O (centres undefined),,inactive: -4.95%
COC1=CC(=O)C(O)=C/C1=C\C=C\c1ccccc1,"inconclusive [inhibitor, partial curve, poor fit]",
CO[C@@]1(NC(=O)CSCC#N)C(=O)N2C(C(=O)O)=C(CSc3nnnn3C)CSC21 (some centres undefined),"inconclusive [inhibitor, partial curve, poor fit]",
CS(=O)(=O)Nc1cccc(-c2nccc(Nc3ccc(F)cc3)n2)c1,"inconclusive [inhibitor, partial curve, poor fit]",
COC(=O)CC1C(C)(C)C(O)C2CC3=C4CC(O)OC(c5ccoc5)[C@]4(C)CCC3[C@@]1(C)C2=O (some centres undefined),"inconclusive [inhibitor, partial curve]",
O=c1c2ccccc2oc2ccccc12,,inactive: -10.5%
CC1=C(/C=C/C(C)=C/C=C/C(C)=C/C=C/C=C(C)/C=C/C=C(C)/C=C/C(=O)[C@]2(C)CC(O)CC2(C)C)C(C)(C)CC(O)C1 (some centres undefined),"inconclusive [inhibitor, partial curve, poor fit]",
CC(C)=CCc1c(O)cc2occ(-c3ccc4c(c3)OCO4)c(=O)c2c1O,"inconclusive [inhibitor, partial curve]",
COc1ccc(-c2cc(=O)c3ccccc3o2)cc1,"inconclusive [inhibitor, partial curve, poor fit]",
CCC(C)(C)C(=O)OC1CC(C)C=C2C=CC(C)C(CCC3CC(O)CC(=O)O3)C21 (centres undefined),"inconclusive [inhibitor, partial curve]",
O=c1c(O)c(-c2ccccc2)oc2cc(O)ccc12,"inconclusive [inhibitor, full curve, poor fit]",
CSc1nc(NC2CCCC2)c([N+](=O)[O-])c(NC2CCCC2)n1,"inconclusive [inhibitor, partial curve, poor fit]",
COc1ccc(-n2c(=O)c(-c3cc(F)cc(F)c3)nc3cncnc32)cc1,,inactive: -7.12% [at 54.9 µM]
